# Assay results published in the supplement of paper PMC11417369.
# ± gives the standard deviation of the averaged measurements. Some of the results follow.
# Test system: PfAP2-I AP2 domain 3 (GST-tagged)
# Assay: gcPBM binding intensity (ln(normalized median fluorescence intensity)); higher = stronger DNA binding
# Outline: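 An Agilent 4 × 180k array of primer-extended double-stranded 36-bp intergenic genomic probes, with negative controls, was incubated for 1 h with GST-tagged P. falciparum DNA-binding domains expressed in E. coli. Alexa488 anti-GST antibody detected bound protein, scanned at 488 nm. Binding intensity is the highest Masliner-normalised natural-log median intensity across replicate spots of either probe orientation.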
row,Sequence,gcPBM binding intensity (ln)
1,TTGTGAAATAAAATTTGTACACACATATATATATAT [XGTACX_site1078],9.485 ± 0.007
2,AAAATTTAAAGCATGACACACAATTATATTATGTGC [CACACA_site3435],7.38 ± 0.61
3,TTTTTTTTGGAATTCACACAAATATAACATGGGTAT [CACACA_site5185],7.89 ± 0.58
4,TTCTTTTCTTTAGTAGAATGTAAAAAATATAATCTT [XGTACX_negctrl_site290],7.65 ± 0.57
5,ACTTATATATTATGTTGTCCGTCCATTCTCTTTATC [XGTACX_site3769],8.09 ± 0.92
6,TTTTCATTCAATTATATTTATATATATATATATATA [GTGCAC_negctrl_site538],9.24 ± 0.4
7,CAAAATATTTTTATAACACACATATATATAATGTGC [CACACA_site4767],7.8 ± 0.52
8,TACATGTATAAATAAGCACACATGTGGATATGTACA [CACACA_site93],8.34 ± 0.35
9,ACGTGTGATTATAATTGTACTTTAATGTAAGAATGA [XGTACX_site1109],7.92 ± 0.45
10,ATATATATATATATATGTACTTATAATAATATTCAA [XGTACX_site2593],9.53 ± 0.35
11,AATTTTATTTAATTTTTTTGGGAAATGATAAAATTT [CACACA_negctrl_site934],7.43 ± 0.45
12,TTATTTTATTTTTTTGTGCACATATATATTTATAAA [GTGCAC_site9615],10.86 ± 0.028
13,AAAAAAAAAAAAAAAACACACATACATACATACATA [CACACA_site6125],8.66 ± 0.47
14,TTTTTTTTTTTTTTTGCACACACCATATTTATAGAA [CACACA_site3310],9.63 ± 0.49
15,AGAAAAGTGATATATACACACTTATATTTATTTATA [CACACA_site7350],7.58 ± 0.49
16,TATTGTCTATAATAAACACACAATATTAAAAATATA [CACACA_site6624],7.55 ± 0.39
17,ATCTTTCCTATTTGTAGTACAAAAAAAAAAAAAAAA [XGTACX_site5485],8.23 ± 0.38
18,TTAAATGATGTAAACACACACATATACATTATTATA [CACACA_site3162],7.66 ± 0.48
19,TTTTATAAGGTGAAAAGTACATATAACTTATTTTAC [XGTACX_site5572],7.75 ± 0.65
20,TATTGTTACTTTATATGTACTAATTAAACATATACA [XGTACX_site6363],7.87 ± 0.27
21,TTGTATTATATTGTATTATGTTTAAATGAAAAAAAA [CACACA_negctrl_site662],7.82 ± 0.4
22,AAAAAAAAAAAAAAAAGTACACAAATTTTAAAAATT [XGTACX_site3006],8.86 ± 0.4

row,Sequence,gcPBM binding intensity (ln)
1,AAAAATACCTTATATATACACACTATGTTTTTCTTT [CACACA_site1192],7.96 ± 0.63
2,AAATATTAGTAACACAGACACACAAAAAAAAAAAAA [CACACA_site2175],8.03 ± 0.76
3,TGTTTATTTTTAAAAAGTACATATTTAAAAAACTTC [XGTACX_site271],7.82 ± 0.11
4,TTTTCTAAATAAATAGTGCATTTATTATATATACAT [GTGCAC_site9766],10.7 ± 0.37
5,CAAAAGAAGGTAAACACACACACACGCATACAAAAA [CACACA_site7724],8.07 ± 0.55
6,ATTTCTCTATCGTAATGTACATAAAAAATGAAAAAA [XGTACX_site1201],8.12 ± 0.25
7,CAAAACCTTATATGTACACACATATACATCACCCTT [CACACA_site3170],7.96 ± 0.49
8,ATAGAATAAAACTATACACACCTATATTTAAACATA [CACACA_site5106],7.85 ± 0.54
9,AAATATATATATATATATATATATATATATATATAT [CACACA_negctrl_site677],9.45 ± 0.81
10,TGATCAGATAGACACACACACAAAAAAAAAAAAAAA [CACACA_site7805],8.12 ± 0.57
11,AAATGAATAAATAAGACACACACGAAAATAAGTAAA [CACACA_site71],8.18 ± 0.42
12,AATTACTACATAAATACATGCATAATTATATATATA [TGCATGCA_site783],8.52 ± 0.28
13,TATCTCTTCATATTGTGTACATATTTTTATTTATTG [XGTACX_site4038],8.14 ± 0.73
14,ATAAAATATAAAAATTGTACGATAATAATAGTAGGA [XGTACX_site8951],7.8 ± 0.64
15,AACACTTCTTATTTATGTACTTAATTCCCAACGGAA [XGTACX_site4818],8.02 ± 0.68
16,TTGTTCTATTTAAGTAGTACATACACACACATATAC [XGTACX_site8484],8.18 ± 0.34
17,ACATATATATATTCTACACACTTATAATATAATACA [CACACA_site2461],7.99 ± 0.61
18,CACAATACTTTCATCACACATATATATATATATATA [CACACA_site4677],9.35 ± 0.58
19,ACTAAACTAATATGTACACACATATAACATTAATTT [CACACA_site7128],8.16 ± 0.21
20,TTTCGTTCATAAAAAAGTACATATGAGCAAAAGGTA [XGTACX_site8936],8.01 ± 0.22
21,TATATATATATATATAGTACATATTTATATATGAAA [XGTACX_site8488],9.2 ± 0.52
22,GAATTAAAATAATACGTACACACATGTATAATACAT [CACACA_site1004],8.18 ± 0.26
